Results published in the supplement of paper PMC12423691.
The other results are listed elsewhere or left out. Binding of human transcription factors and regulators to the viral nucleoprotein by AlphaScreen, crude cell-free proteins, amounts not normalised, one pass. Fold of the Venus control; higher = more signal. No active / inactive call. Single-pass screen; sequences are the whole Swiss-Prot entries looked up by name.

B1: TRIM8, Q9BZR9 (protein)
chain: MAENWKNCFEEELICPICLHVFVEPVQLPCKHNFCRGCIGEAWAKDSGLVRCPECNQAYNQKPGLEKNLKLTNIVEKFNALHVEKPPAALHCVFCRRGPPLPAQKVCLRCEAPCCQSHVQTHLQQPSTARGHLLVEADDVRAWSCPQHNAYRLYHCEAEQVAVCQYCCYYSGAHQGHSVCDVEIRRNEIRKMLMKQQDRLEEREQDIEDQLYKLESDKRLVEEKVNQLKEEVRLQYEKLHQLLDEDLRQTVEVLDKAQAKFCSENAAQALHLGERMQEAKKLLGSLQLLFDKTEDVSFMKNTKSVKILMDRTQTCTSSSLSPTKIGHLNSKLFLNEVAKKEKQLRKMLEGPFSTPVPFLQSVPLYPCGVSSSGAEKRKHSTAFPEASFLETSSGPVGGQYGAAGTASGEGQSGQPLGPCSSTQHLVALPGGAQPVHSSPVFPPSQYPNGSAAQQPMLPQYGGRKILVCSVDNCYCSSVANHGGHQPYPRSGHFPWTVPSQEYSHPLPPTPSVPQSLPSLAVRDWLDASQQPGHQDFYRVYGQPSTKHYVTS
B2: ZNF444, Q8N0Y2 (protein)
chain: MEVAVPVKQEAEGLALDSPWHRFRRFHLGDAPGPREALGLLRALCRDWLRPEVHTKEQMLELLVLEQFLSALPADTQAWVCSRQPQSGEEAVALLEELWGPAASPDGSSATRVPQDVTQGPGATGGKEDSGMIPLAGTAPGAEGPAPGDSQAVRPYKQEPSSPPLAPGLPAFLAAPGTTSCPECGKTSLKPAHLLRHRQSHSGEKPHACPECGKAFRRKEHLRRHRDTHPGSPGSPGPALRPLPAREKPHACCECGKTFYWREHLVRHRKTHSGARPFACWECGKGFGRREHVLRHQRIHGRAAASAQGAVAPGPDGGGPFPPWPLG
B3: CRTC1, Q6UUV9 (protein)
chain: MATSNNPRKFSEKIALHNQKQAEETAAFEEVMKDLSLTRAARLQLQKSQYLQLGPSRGQYYGGSLPNVNQIGSGTMDLPFQTPFQSSGLDTSRTTRHHGLVDRVYRERGRLGSPHRRPLSVDKHGRQADSCPYGTMYLSPPADTSWRRTNSDSALHQSTMTPTQPESFSSGSQDVHQKRVLLLTVPGMEETTSEADKNLSKQAWDTKKTGSRPKSCEVPGINIFPSADQENTTALIPATHNTGGSLPDLTNIHFPSPLPTPLDPEEPTFPALSSSSSTGNLAANLTHLGIGGAGQGMSTPGSSPQHRPAGVSPLSLSTEARRQQASPTLSPLSPITQAVAMDALSLEQQLPYAFFTQAGSQQPPPQPQPPPPPPPASQQPPPPPPPQAPVRLPPGGPLLPSASLTRGPQPPPLAVTVPSSLPQSPPENPGQPSMGIDIASAPALQQYRTSAGSPANQSPTSPVSNQGFSPGSSPQHTSTLGSVFGDAYYEQQMAARQANALSHQLEQFNMMENAISSSSLYSPGSTLNYSQAAMMGLTGSHGSLPDSQQLGYASHSGIPNIILTVTGESPPSLSKELTSSLAGVGDVSFDSDSQFPLDELKIDPLTLDGLHMLNDPDMVLADPATEDTFRMDRL

Molecular target: nucleoprotein N of Crimean-Congo hemorrhagic fever virus
Assay: AlphaScreen luminescence signal relative to Venus negative control (fold); higher = stronger binding to CCHFV N
Method: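 AlphaScreen binding of cell-free made, FLAG-GST-tagged human transcription factors and regulators (crude translation products) to biotinylated N protein; signal as fold of the FLAG-GST-Venus control. One pass.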

Row | Binder | AlphaScreen luminescence signal
1 | B1 | 1.63
2 | B2 | 2.19
3 | B3 | 2.14
